# Measured values: the supplement of paper PMC8728848
# This is one part of the list.
# Tests used:
# Assay in all cases: glycan array binding signal (z-score within array); higher = stronger binding
# Conditions in all cases: glycan notation: IUPAC condensed, linker removed
# [1] = biological target: Fuc(a1-2)Gal(b1-4)GlcNAc(b1-3)Gal(b1-4)GlcNAc(b1-2)Man(a1-3)[Fuc(a1-2)Gal(b1-4)GlcNAc(b1-3)Gal(b1-4)GlcNAc(b1-2)Man(a1-6)]Man(b1-4)GlcNAc(b1-4)GlcNAc
# Method in brief: (§1)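 From the Consortium for Functional Glycomics database, 3228 arrays were curated, keeping only those whose protein sequence was available. Binding is given as a within-array Z-score averaged across arrays sharing a protein sequence and across linkers. Negative Z-scores can be read as non-binding.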
# [2] = biological target: Fuc(a1-2)Gal(b1-4)GlcNAc(b1-3)Gal(b1-4)GlcNAc(b1-3)Gal(b1-4)GlcNAc
# Method in brief: as §1
# [3] = biological target: Fuc(a1-2)Gal(b1-4)GlcNAc(b1-3)GalNAc
# Method in brief: as §1
# [4] = biological target: Fuc(a1-2)Gal(b1-4)GlcNAc(b1-3)[Fuc(a1-2)Gal(b1-4)GlcNAc(b1-6)]GalNAc
# Method in brief: as §1
# [5] = biological target: Fuc(a1-2)Gal(b1-4)GlcNAc(b1-3)[Fuc(a1-3)[Gal(b1-4)]GlcNAc(b1-6)]Gal(b1-4)Glc
# Method in brief: as §1
# [6] = biological target: Fuc(a1-2)Gal(b1-4)GlcNAc(b1-6)GalNAc
# Method in brief: as §1
# [7] = biological target: Fuc(a1-2)Gal(b1-4)GlcNAc6S
# Method in brief: as §1
# [8] = biological target: Fuc(a1-2)Gal(b1-4)[Fuc(a1-3)]GlcNAc
# Method in brief: as §1
# [9] = biological target: Fuc(a1-2)Gal(b1-4)[Fuc(a1-3)]GlcNAc(b1-2)Man(a1-3)[Fuc(a1-2)Gal(b1-4)[Fuc(a1-3)]GlcNAc(b1-2)Man(a1-6)]Man(b1-4)GlcNAc(b1-4)[Fuc(a1-6)]GlcNAc
# Method in brief: as §1
# [10] = biological target: Fuc(a1-2)Gal(b1-4)[Fuc(a1-3)]GlcNAc(b1-2)[Fuc(a1-2)Gal(b1-4)[Fuc(a1-3)]GlcNAc(b1-4)]Man(a1-3)[Fuc(a1-2)Gal(b1-4)[Fuc(a1-3)]GlcNAc(b1-2)Man(a1-6)]Man(b1-4)GlcNAc(b1-4)GlcNAc
# Method in brief: as §1
# [11] = biological target: Fuc(a1-2)Gal(b1-4)[Fuc(a1-3)]GlcNAc(b1-3)Gal(b1-4)[Fuc(a1-3)]GlcNAc
# Method in brief: as §1
# [12] = biological target: Fuc(a1-2)Gal(b1-4)[Fuc(a1-3)]GlcNAc(b1-3)Gal(b1-4)[Fuc(a1-3)]GlcNAc(b1-3)Gal(b1-4)[Fuc(a1-3)]GlcNAc
# Method in brief: as §1
# [13] = biological target: Fuc(a1-2)Gal(b1-4)[Fuc(a1-3)]GlcNAc(b1-3)GalNAc
# Method in brief: as §1
# [14] = biological target: Fuc(a1-2)Gal(b1-4)[Fuc(a1-3)]GlcNAc(b1-3)[Neu5Ac(a2-6)Gal(b1-4)GlcNAc(b1-6)]Gal(b1-4)Glc
# Method in brief: as §1
# [15] = biological target: Fuc(a1-2)Gal3S(b1-4)GlcNAc
# Method in brief: as §1
# [16] = biological target: Fuc(a1-2)Gal6S(b1-3)GlcNAc
# Method in brief: as §1
# [17] = biological target: Fuc(a1-2)Gal6S(b1-3)GlcNAc6S
# Method in brief: as §1
# Fuc(a1-2)Gal6S(b1-4)Glc = biological target: Fuc(a1-2)Gal6S(b1-4)Glc
# Method in brief: as §1
# [18] = biological target: Fuc(a1-2)Gal6S(b1-4)Glc6S
# Method in brief: as §1
# Fuc(a1-2)[Gal(a1-3)]Gal = biological target: Fuc(a1-2)[Gal(a1-3)]Gal
# Method in brief: as §1
# [19] = biological target: Fuc(a1-2)[Gal(a1-3)]Gal(b1-3)GalNAc
# Method in brief: as §1
# [20] = biological target: Fuc(a1-2)[Gal(a1-3)]Gal(b1-3)GalNAc(b1-3)Gal(a1-4)Gal(b1-4)Glc
# Method in brief: as §1
# [21] = biological target: Fuc(a1-2)[Gal(a1-3)]Gal(b1-3)GlcNAc
# Method in brief: as §1
# [22] = biological target: Fuc(a1-2)[Gal(a1-3)]Gal(b1-3)GlcNAc(b1-2)Man(a1-3)[Fuc(a1-2)[Gal(a1-3)]Gal(b1-3)GlcNAc(b1-2)Man(a1-6)]Man(b1-4)GlcNAc(b1-4)GlcNAc
# Method in brief: as §1
# [23] = biological target: Fuc(a1-2)[Gal(a1-3)]Gal(b1-3)GlcNAc(b1-2)Man(a1-3)[Fuc(a1-2)[Gal(a1-3)]Gal(b1-3)GlcNAc(b1-2)Man(a1-6)]Man(b1-4)GlcNAc(b1-4)[Fuc(a1-6)]GlcNAc
# Method in brief: as §1
# [24] = biological target: Fuc(a1-2)[Gal(a1-3)]Gal(b1-3)GlcNAc(b1-3)GalNAc
# Method in brief: as §1
# [25] = biological target: Fuc(a1-2)[Gal(a1-3)]Gal(b1-3)GlcNAc(b1-6)GalNAc
# Method in brief: as §1
# [26] = biological target: Fuc(a1-2)[Gal(a1-3)]Gal(b1-4)Glc
# Method in brief: as §1
# [27] = biological target: Fuc(a1-2)[Gal(a1-3)]Gal(b1-4)GlcNAc
# Method in brief: as §1
# [28] = biological target: Fuc(a1-2)[Gal(a1-3)]Gal(b1-4)GlcNAc(b1-2)Man
# Method in brief: as §1
binder,measurement,setting,value
"LICBM33A (Lactococcus lactis), Q9CE94 (protein) MKKLLTGLLVAAGLLSVSLLIKTDTVSAHGYVQSPPARGYQGQLDSQSLGWTAAFNIYGNVISNPQSLEAPKGFPECGPADGRIASANGGLGQIGDFVLDNQTSSRWKKTSISTGSNIFTWKYTAPHKTTKWHYYMTKTGWDQNAPLKHSELELIGTINHDGSPATNNLSHTINIPTDRSGYHIVLAVWDVADTSNAFYNVIDINVNNKNASSQVFGPFL",glycan array binding signal (z-score),[1],-0.145
same,glycan array binding signal (z-score),[2],-0.698
same,glycan array binding signal (z-score),[3],-0.457
same,glycan array binding signal (z-score),[4],1.2
same,glycan array binding signal (z-score),[5],-0.861
same,glycan array binding signal (z-score),[6],1.8
same,glycan array binding signal (z-score),[7],-0.791
same,glycan array binding signal (z-score),[8],-0.296
same,glycan array binding signal (z-score),[9],-0.366
same,glycan array binding signal (z-score),[10],-0.801
same,glycan array binding signal (z-score),[11],-0.587
same,glycan array binding signal (z-score),[12],-0.352
same,glycan array binding signal (z-score),[13],-0.621
same,glycan array binding signal (z-score),[14],-0.597
same,glycan array binding signal (z-score),[15],3.62
same,glycan array binding signal (z-score),[16],-0.643
same,glycan array binding signal (z-score),[17],0.187
same,glycan array binding signal (z-score),Fuc(a1-2)Gal6S(b1-4)Glc,-0.482
same,glycan array binding signal (z-score),[18],2.58
same,glycan array binding signal (z-score),Fuc(a1-2)[Gal(a1-3)]Gal,-0.276
same,glycan array binding signal (z-score),[19],-0.389
same,glycan array binding signal (z-score),[20],-0.196
same,glycan array binding signal (z-score),[21],-0.066
same,glycan array binding signal (z-score),[22],-0.283
same,glycan array binding signal (z-score),[23],0.253
same,glycan array binding signal (z-score),[24],1.39
same,glycan array binding signal (z-score),[25],-0.453
same,glycan array binding signal (z-score),[26],-0.488
same,glycan array binding signal (z-score),[27],-0.034
same,glycan array binding signal (z-score),[28],-0.459
